Source: PubChem BioAssay AID686970 (National Center for Advancing Translational Sciences (NCATS), 2013)
In all, about 360,000 compounds went through this assay and about 6,000 (1.7%) were called active. This list was built around the results that the source calls inconclusive (neither active nor inactive); the mix of calls is not that of the screen. The call rests on the fitted dose curve; in most records, active means well fitted cell-killing curve with a large enough effect; inconclusive means small, poorly fitted or top-dose-only effect, or effect the other way; inactive means flat fitted curve, though single readings scatter. Potencies of inconclusive entries are left out as doubtful fits.

test: qHTS for induction of synthetic lethality in tumor cells producing 2HG: qHTS for the HT-1080-NT fibrosarcoma cell line; settings: HT-1080-NT fibrosarcoma viability, CellTiter-Glo ATP luminescence, 48 h; activity, negative = less viability: at 46.1 µM (top of the series) unless noted;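 further: NT is the 2HG producing partner of a matched IDH1 knockdown line; nearly all actives have a fitted effect of over 55% in size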;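 on activity, negative = less viability: 0% = DMSO-treated cells and -100% = media-only wells without cells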
In short: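 Fibrosarcoma NT cells, 750 per well in 5% FBS RPMI, were exposed to compound for 48 hours. Viability: CellTiter-Glo luminescence.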
Potency means the concentration at half of the fitted maximal effect; tags describe the fitted curve by direction and shape.

Q: For `O=C(NC12CC3CC(CC(C3)C1)C2)c1ccc(-c2ccccc2Cl)o1`, which Potency is on record?
A: inconclusive [cytotoxic, single point]

Q: Which Potency does the source give for `Cc1cccc(-c2nc3sc(C)cc3c(=O)o2)c1` here?
A: inactive

Q: Which Potency does the source give for `N#C/C(=C\c1ccc(O)c(O)c1)C(=O)N1CCCC1` here?
A: inconclusive [cytotoxic, single point]

Q: Which Potency does the source give for `Cc1ccc(NC(=O)N2CCCN(C(=O)OC(C)(C)C)CC2)cc1Cl` here?
A: inactive

Q: With `COc1ccccc1Nc1cc(C)nc2c(C)cccc12` as the compound, how does the Potency read?
A: inactive

Q: With `CC(C)=CCc1c(O)ccc(C(=O)Cc2ccccc2)c1O` as the compound, how does the Potency read?
A: inconclusive [cytotoxic, single point]

Q: With `O=C(N/N=C/c1c[nH]c2ccccc12)c1cc(-c2cccc3ccccc23)n[nH]1` as the compound, how does the Potency read?
A: inconclusive [cytotoxic, single point]

Q: Which Potency does the source give for `N#CCCn1cc(C(=O)Nc2ccc([N+](=O)[O-])cc2)c(-c2cc3ccccc3o2)n1` here?
A: inconclusive [cytotoxic, partial curve, poor fit]

Q: Which Potency does the source give for `CCN1CCN(c2nc3c(C)cccn3c(=O)c2/C=C(\C#N)C(=O)NCCCOC)CC1` here?
A: inactive

Q: With `CCSc1oc(-c2cccs2)nc1S(=O)(=O)c1ccccc1` as the compound, how does the Potency read?
A: inactive

Q: Which Potency does the source give for `CCC(C)c1ccc(OCC(=O)Nc2cccc(C(=O)Nc3ccc(C(=O)O)cc3)c2)cc1` (stereo unspecified) here?
A: inconclusive [cytotoxic, single point]

Q: For `Cn1c(=O)[nH]c(=O)c2c1nc(CN1CCN(c3cccc(Cl)c3)CC1)n2CCc1ccccc1`, which Potency is on record?
A: inconclusive [cytotoxic, single point]

Q: With `COc1ccc(Br)c(Cn2c(C)c(C(=O)NCc3ccc(F)cc3)sc2=O)c1` as the compound, how does the Potency read?
A: inactive

Q: Which Potency does the source give for `CCOC(=O)c1c(N)sc(C(O)(C(F)(F)F)C(F)(F)F)c1-c1ccc(OC)cc1OC` here?
A: inconclusive [cytotoxic, single point]

Q: For `CC(C1CC1)N(C(=O)c1ccccc1[N+](=O)[O-])c1ccccc1` (stereo unspecified), which Potency is on record?
A: inactive

Q: With `O=C(COc1ccc(CO)cc1)Nc1ccc(F)cc1` as the compound, how does the Potency read?
A: inactive

Q: For `C/C(=N/NC(=O)c1cccs1)c1c(C)[nH]n(-c2nc3ccccc3s2)c1=O`, which Potency is on record?
A: active: 2.31 µM

Q: For `Cc1ccc(CNC(=O)C2(C)CCN2C(=O)Cc2ccc(-c3ccccc3)cc2)cc1` (stereo unspecified), which Potency is on record?
A: inconclusive [cytotoxic, single point]

Q: With `CC(C)Nc1cc(C(C)(C)C)nc2c(-c3ccccc3)cnn12` as the compound, how does the Potency read?
A: inconclusive [cytotoxic, single point]

Q: With `O=C1C=C(Nc2ccc(Cl)cc2Cl)CC(c2ccco2)C1` (stereo unspecified) as the compound, how does the Potency read?
A: active: 3.66 µM

Q: Which Potency does the source give for `Fc1ccc(C2c3[nH]c4ccccc4c3CCN2Cc2cccn2-c2ncccn2)cc1` (stereo unspecified) here?
A: inconclusive [cytotoxic, partial curve, poor fit]

Q: For `COC(=O)C(=C/C(C)=C/c1cccnc1)C(=O)OC`, which Potency is on record?
A: inactive

Q: With `Cc1ccc(CNc2ncnc3c2cnn3C2CCCCO2)cc1` (stereo unspecified) as the compound, how does the Potency read?
A: inactive

Q: With `COc1ccc(C(CC(=O)Nc2ccc(F)cc2)c2ccccc2)cc1` (stereo unspecified) as the compound, how does the Potency read?
A: inconclusive [cytotoxic, single point]

Q: With `CN(C)c1ccc(S(=O)(=O)c2ccc(Cl)cc2)cc1` as the compound, how does the Potency read?
A: inactive

Q: With `COc1ccc(C(=O)NCc2nnc(SCC(=O)NCc3ccco3)o2)cc1OC` as the compound, how does the Potency read?
A: inactive

Q: With `CC(C)(C)OC(=O)NCC(=O)Oc1cc2oc(=O)cc(-c3ccccc3)c2cc1Cl` as the compound, how does the Potency read?
A: inactive

Q: With `COc1cccc(S(=O)(=O)NCc2ccc(C(=O)Nc3cccc(Cl)c3)cc2)c1` as the compound, how does the Potency read?
A: inconclusive [cytotoxic, single point]

Q: Which Potency does the source give for `Cc1ccccc1N1C(N)=NC(N)=NC1(C)C` here?
A: inactive

Q: For `O=C(CNc1cccc(S(=O)(=O)N2CCCCC2)c1)Nc1cccc(F)c1`, which Potency is on record?
A: inconclusive [cytotoxic, single point]

Q: For `O=C(Cn1cnc2c(NCc3ccccc3)ncnc21)NCc1ccc2c(c1)OCO2`, which Potency is on record?
A: inconclusive [cytotoxic, single point]

Q: Which Potency does the source give for `Cc1nc2c(c(C)nn2-c2ccccc2)c(C)c1CCC(=O)Nc1ccc(CN2CCCC2)cc1` here?
A: active: 14.6 µM

Q: With `Cc1ccc(OCCNC(=O)c2cccc(S(=O)(=O)NCc3ccccc3)c2)cc1` as the compound, how does the Potency read?
A: inconclusive [cytotoxic, partial curve]

Q: For `COc1ccc(NC(=S)NCCc2ccccc2)c(OC)c1`, which Potency is on record?
A: inconclusive [cytotoxic, single point]

Q: Which Potency does the source give for `CN(C(=O)c1nc(-c2ccccc2)n(-c2ccccc2)n1)C1CCS(=O)(=O)C1` (stereo unspecified) here?
A: inconclusive [rising, single point]

Q: With `CCN(CC)CCN(Cc1cc2ccc(C)cc2[nH]c1=O)C(=S)Nc1ccccc1C(=O)OC` as the compound, how does the Potency read?
A: inconclusive [cytotoxic, partial curve]

Q: For `CCOC(=O)C1=C(Cc2ccc(Cl)cc2)C(=O)c2ccccc2C1=O`, which Potency is on record?
A: active: 11.2 µM

Q: With `COCCNC(=O)C1(C)Cc2c(-c3cccc(NC(C)=O)c3)ccnc2O1` (stereo unspecified) as the compound, how does the Potency read?
A: inconclusive [cytotoxic, single point]

Q: With `O=C(Nc1ccc(-c2nc3ncccc3o2)cc1)c1ccc([N+](=O)[O-])o1` as the compound, how does the activity, negative = less viability read?
A: inconclusive: -13.3% [cytotoxic]

Q: With `CC(C)C(N)c1csc(Nc2ccc(C(=O)c3ccccc3)cc2)n1` (stereo unspecified) as the compound, how does the Potency read?
A: inconclusive [cytotoxic, single point]

Q: For `Cc1occc1C(=O)NNC(=O)c1ccc(Br)o1`, which Potency is on record?
A: inactive

Q: For `O=C(Nc1ccc(Cl)cc1)Nc1csc([N+](=O)[O-])c1`, which Potency is on record?
A: active: 13 µM

Q: Which Potency does the source give for `COCCn1c(C)cc(C(=O)CSc2nc3ccccc3s2)c1C` here?
A: inconclusive [cytotoxic, single point]

Q: With `O=C(CCc1nc2ccccc2c(=O)[nH]1)Nc1cc(Cl)ccc1N1CCCCC1` as the compound, how does the Potency read?
A: inconclusive [cytotoxic, single point]

Q: Which Potency does the source give for `CN1Cc2c(N3CCOCC3)nc3sc(C(=O)c4ccc(Br)cc4)c(N)c3c2CC1(C)C` here?
A: active: 23.1 µM

Q: Which Potency does the source give for `COc1ccccc1N=C(C)C1=C(O)CC(c2ccccc2)CC1=O` (stereo unspecified) here?
A: inconclusive [cytotoxic, full curve]

Q: Which Potency does the source give for `CCCOc1ccc(/C=C/C(=O)Nc2ccc([N+](=O)[O-])cc2)cc1` here?
A: active: 13 µM

Q: Which Potency does the source give for `CCOc1cccc(OCCn2cnc3ccccc3c2=O)c1` here?
A: inactive

Q: Which Potency does the source give for `COc1cccc(-c2cnc3c(NC(C)=O)cc(-c4ccc(C(=O)NC5CC5)cc4)cn23)c1` here?
A: active: 18.4 µM

Q: Which Potency does the source give for `CCC(c1nnnn1-c1c(C)cccc1C)N1CCN(C/C=C/c2ccccc2)CC1` (stereo unspecified) here?
A: active: 18.4 µM

Q: With `CC1(Cc2cc(Cl)ccc2C(F)(F)F)C(=O)Nc2c(Cl)cccc21` (stereo unspecified) as the compound, how does the Potency read?
A: inconclusive [cytotoxic, single point]

Q: Which Potency does the source give for `COc1cccc2sc(N(CCCN(C)C)C(=O)c3ccc(S(=O)(=O)N4CCCc5ccccc54)cc3)nc12` here?
A: active: 18.4 µM

Q: For `Cc1nn(Cc2ccccc2)c(C)c1NC(=O)c1cc(-c2ccc3c(c2)OCO3)on1`, which Potency is on record?
A: inconclusive [cytotoxic, partial curve]

Q: For `O=C(CSc1nc2ccccc2[nH]1)c1ccc2c(c1)OCO2`, which Potency is on record?
A: inconclusive [cytotoxic, single point]

Q: Which Potency does the source give for `CCOc1ccc(C2c3[nH]c4ccccc4c3C[C@H]3C(=O)N(C4CCN(Cc5ccccc5)CC4)CC(=O)N23)cc1OC` (stereo partly specified) here?
A: inconclusive [cytotoxic, single point]

Q: Which Potency does the source give for `COc1ccccc1CCn1cnc(Cc2cccc(F)c2)c1C(C)C` here?
A: inconclusive [cytotoxic, single point]

Q: With `Cc1c(C(=O)O)[nH]c2c1C(=O)CC(c1ccc(C(C)(C)C)cc1)C2` (stereo unspecified) as the compound, how does the Potency read?
A: inactive

Q: With `Cc1nnsc1S(=O)c1ccc(Cl)c(Cl)c1` (stereo unspecified) as the compound, how does the Potency read?
A: inconclusive [cytotoxic, single point]

Q: With `O=C(NCc1ccccc1F)C1CCCN1C(=O)NC1CCCCC1` (stereo unspecified) as the compound, how does the Potency read?
A: inactive

Q: Which Potency does the source give for `Cc1[nH]c2ccccc2c1C(=O)/C=C/c1ccccc1Cl` here?
A: inconclusive [cytotoxic, single point]

Q: With `NC(=O)c1ccccc1NC(=O)Nc1cccc(Cl)c1` as the compound, how does the Potency read?
A: inactive

Q: Which Potency does the source give for `COc1cc(OC)c(C2=NOC(C(=O)NCc3cccs3)C2)cc1Cl` (stereo unspecified) here?
A: active: 4.11 µM

Q: With `C=CCNc1nc(-c2sc(NC(=O)C(C)(C)C)nc2C)c(-n2cc(-c3ccccc3)nn2)s1` as the compound, how does the Potency read?
A: inconclusive [cytotoxic, single point]

Q: Which Potency does the source give for `C/C(=N\NC(=S)NCCc1ccccc1)c1ccc(Cl)cc1Cl` here?
A: inconclusive [cytotoxic, single point]

Q: For `C[C@@]12C(=O)Nc3cc(Cl)ccc3C(=O)N1[C@H]1c3cc(Cl)ccc3OC[C@@H]1[C@@H]2c1ccccc1`, which Potency is on record?
A: inconclusive [cytotoxic, single point]

Q: Which Potency does the source give for `c1ccc(-c2oc3ncnc(NCCCn4ccnc4)c3c2-c2ccccc2)cc1` here?
A: inconclusive [cytotoxic, single point]

Q: Which Potency does the source give for `Cc1cccc(C)c1OCC(=O)Nc1oc(-c2ccccc2)c(-c2ccccc2)c1C#N` here?
A: inconclusive [cytotoxic, single point]

Q: With `Cc1cccc(C)c1NC(=O)c1nc(S(=O)(=O)Cc2ccccc2)ncc1Cl` as the compound, how does the Potency read?
A: active: 16.4 µM

Q: With `COC(=O)C1=CN(c2ccc3c(c2)OCO3)C(N)=C(C#N)C1c1ccccc1` (stereo unspecified) as the compound, how does the Potency read?
A: active: 18.4 µM

Q: With `CCOc1ccc(CCN2C(=O)C(=O)N([C@@H](CC(C)C)CN3CCC[C@@H]3CN3C(=O)C(=O)NC[C@@H]3CC(C)C)C[C@@H]2Cc2ccccc2)cc1` as the compound, how does the Potency read?
A: inconclusive [cytotoxic, single point]

Q: With `COc1ccc(S(=O)(=O)N2Cc3ccccc3CC2C(=O)Nc2nccs2)cc1` (stereo unspecified) as the compound, how does the Potency read?
A: inconclusive [cytotoxic, single point]
